{"source": "PubChem BioAssay AID624296", "about": "(National Center for Advancing Translational Sciences (NCATS), 2012)", "note": "About 9,900 (2.8%) of roughly 350,000 compounds were called active. This list was built around the results that the source calls inconclusive (neither active nor inactive); the mix of calls is not that of the screen. Calls follow the shape of the dose curve; as a rule, active = well fitted activation curve with a large enough effect; inconclusive = small, poorly fitted or top-dose-only effect; inactive = no such curve, though single readings can be large or run the other way. No potency is given beside an inconclusive call; the fits are too rough. Potency is read from the fitted curve at half-maximal effect; tags tell the direction and shape of the fitted curve.", "data": [{"experiment": "A quantitative high throughput screen for small molecules that induce DNA re-replication in MCF 10a normal breast cells; also: nearly all actives have a fitted effect of over 50% in size; as to activity, positive = re-replication: % of control where 0% means no effect.", "details": "MCF 10A DNA re-replication, Hoechst nuclear intensity, 48 h; activity, positive = re-replication: at 46.1 µM (top of the series)", "values": [{"smiles": "COc1cccc2cc(/C(=N/O)c3ccc(Br)cc3)oc12", "Potency": "inconclusive [activator, full curve, poor fit]"}, {"smiles": "COc1ccc(CNC(=O)CN(C(=O)CCC(=O)Nc2ccccn2)c2ccc3c(c2)OCO3)cc1", "Potency": "inactive"}, {"smiles": "CC(c1ccco1)N(C(=O)c1ccc(Cl)c([N+](=O)[O-])c1)c1ccccn1", "note": "(configuration not stated)", "Potency": "inconclusive [activator, single point]"}, {"smiles": "COc1ccc(S(=O)(=O)N2CCN(c3nc(-c4cccnc4)nc4ccccc34)CC2)cc1", "Potency": "inconclusive [activator, single point]"}, {"smiles": "N#C/C(=C\\c1ccc(Sc2ccc(Cl)cc2)o1)c1nc2ccccc2[nH]1", "Potency": "active: 14.6 µM"}, {"smiles": "Cc1ccc(S(=O)(=O)N2CCC(=O)N(CCOCc3ccc(Cl)cc3)CC2)cc1", "Potency": "inactive"}, {"smiles": "Cc1ccn2c(c1)nc(=S)n2C(=O)c1ccco1", "activity, positive = re-replication": "inconclusive: 94.4% [activator]"}, {"smiles": "CCC(CO)Oc1cc(NC(=O)c2ccccc2)c2ncn(C(C)C)c2c1", "note": "(configuration not stated)", "Potency": "inconclusive [activator, partial curve, poor fit]"}, {"smiles": "CN1C(CC(=O)Nc2ccc(Br)cc2)c2ccccc2CC1(C)C", "note": "(configuration not stated)", "Potency": "inconclusive [activator, single point]"}, {"smiles": "Cc1onc(-c2ccccc2)c1C(=O)Nc1nc(-c2cc(F)ccc2F)cs1", "Potency": "inconclusive [activator, partial curve, poor fit]"}, {"smiles": "CCOC(=O)c1c(N)n(CCOC(=O)c2cccs2)c2nc3ccccc3nc12", "Potency": "inconclusive [activator, full curve, poor fit]"}, {"smiles": "CC(C)(C)OC(=O)C(Cl)(C(=O)OC(C)(C)C)c1ccc2nnnn2n1", "Potency": "inconclusive [activator, single point]"}, {"smiles": "Cc1cc(C)n2cc(-c3ccc(Cl)cc3)c(C(=O)O)c2n1", "Potency": "inconclusive [activator, partial curve]"}, {"smiles": "CN(C)c1cc(N/N=C/c2ccccc2C(F)(F)F)nc(N(C)C)n1", "Potency": "inconclusive [activator, partial curve, poor fit]"}, {"smiles": "Cn1nc(-c2ccccc2)c2nc3ccccc3nc21", "Potency": "inconclusive [activator, single point]"}, {"smiles": "Cc1ccc2nc(N3CCN(S(=O)(=O)c4ccc(C)c(Cl)c4)CC3)c(C#N)cc2c1", "Potency": "inconclusive [activator, partial curve, poor fit]"}, {"smiles": "CC(C)=CCC/C(C)=C/C=N/NC(=O)c1ccccc1[N+](=O)[O-]", "Potency": "inconclusive [activator, single point]"}, {"smiles": "COc1cc(OC)c2c(-c3cccc(-c4ccc(N(C)C)cc4)c3)cc(=O)oc2c1", "Potency": "inconclusive [activator, full curve, poor fit]"}, {"smiles": "Cc1nn(Cc2ccccc2)c(=O)c2nn(-c3ccc(Cl)cc3)c(C)c12", "Potency": "inactive"}, {"smiles": "CSc1nc2ccc(NC(=O)CSc3nnc(N)s3)cc2s1", "Potency": "inconclusive [activator, full curve, poor fit]"}, {"smiles": "COc1ccc(-c2cc3ccc(OC(C)C(=O)O)cc3oc2=O)cc1", "note": "(configuration not stated)", "Potency": "inconclusive [activator, single point]"}, {"smiles": "Cc1ccc(S(=O)(=O)Nc2ccc(Cl)cc2)cc1NC(=O)c1cc2c(s1)CCCC2", "Potency": "inconclusive [activator, single point]"}, {"smiles": "CCOc1cc(/C=C2\\SC(=S)N(Nc3ccccc3)C2=O)ccc1O", "Potency": "inconclusive [activator, single point]"}, {"smiles": "c1ccc(SCc2nc(-c3ccncc3)no2)cc1", "Potency": "inconclusive [activator, full curve, poor fit]"}, {"smiles": "O=C(COC(=O)c1cc(=O)[nH]c2ccccc12)NCc1ccc(Cl)cc1", "Potency": "inactive"}, {"smiles": "COc1cc(/C=N/O)cc(Br)c1OCc1cccc(Cl)c1", "Potency": "inconclusive [activator, partial curve, poor fit]"}, {"smiles": "Cc1cccc(-n2nnc(C(=O)NC3CCCc4ccccc43)c2N)c1", "note": "(configuration not stated)", "Potency": "inconclusive [activator, single point]"}, {"smiles": "OCC[C@@H]1C[C@@H](O)[C@H](O)[C@@]2(CCCc3ccccc3O2)O1", "Potency": "inactive"}, {"smiles": "CCC1=C2CC[C@H]3C(=O)N(c4ccccc4)C(=O)[C@H]3[C@H]2[C@@]2(C)C(=NCc3ccccc3)OC(=O)N2C1=O", "Potency": "inconclusive [activator, partial curve, poor fit]"}, {"smiles": "CCN(c1ccccc1)S(=O)(=O)c1ccc(OC)c(NC(=O)C2CCC2)c1", "Potency": "active: 18.4 µM"}, {"smiles": "CCn1c(-c2ccc(N)cc2)nc2ccccc21", "Potency": "inactive"}, {"smiles": "CC(C)(O)C#Cc1ccc(C(=O)N2CCN(c3ccccc3)CC2)cc1", "Potency": "inconclusive [activator, partial curve, poor fit]"}, {"smiles": "CCCN1CCN(S(=O)(=O)c2cn(C)nc2C)CC1", "Potency": "inactive"}, {"smiles": "CN1CCN(c2nc(C(N)=O)cc(-c3ccccc3)n2)CC1", "Potency": "inconclusive [activator, partial curve, poor fit]"}, {"smiles": "CN(CC(=O)Nc1cccc(F)c1)C(=O)CCSc1ccc(F)cc1", "Potency": "inconclusive [activator, partial curve]"}, {"smiles": "CCOC(=O)CN1C(=O)CC(c2ccc([N+](=O)[O-])cc2)C1=O", "note": "(configuration not stated)", "Potency": "inactive"}, {"smiles": "CN(C)/C=N/S(=O)(=O)c1ccc(Cl)c(Cl)c1", "Potency": "inactive"}, {"smiles": "COc1ccc(/C=C(\\NC(=O)c2ccc(OC)c(OC)c2)C(=O)N2CCN(C)CC2)cc1", "Potency": "inconclusive [activator, partial curve, poor fit]"}, {"smiles": "CCC(C)C(CO)NCCCn1cnc(C(=O)Nc2ccc(C)c(C)c2)n1", "note": "(configuration not stated)", "Potency": "inconclusive [activator, single point]"}, {"smiles": "C=CCn1c(=N)c(C(=O)NCCCOC)cc2c(=O)n3cc(C)ccc3nc21", "Potency": "active: 8.2 µM"}, {"smiles": "O=C(NCCN1C(=O)S/C(=C\\c2ccc(Cl)cc2Cl)C1=O)C1=COCCO1", "Potency": "active: 13 µM"}, {"smiles": "O=C(O)c1ccc(CSc2nc3ccc(N4C(=O)C5C6C=CC(C6)C5C4=O)cc3s2)cc1", "note": "(configuration not stated)", "Potency": "inconclusive [activator, partial curve, poor fit]"}]}]}
